The supplement of paper PMC9446081
In all, about 39,000 compounds went through this assay and about 220 (0.56%) showed activity. The list shows a part of the results.

tested on: Escherichia coli K-12 BW25113; assay: relative growth (OD600 normalised to plate interquartile mean) (fraction); higher = less growth inhibition, active = 0.2 or less; conditions: 50 µM; LB; incubation time: overnight (16-24 h)
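Further: static incubation at 37 °C against the wild-type strain, values averaged over two biological replicates.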

Row | SMILES | relative growth
1 | O=C(CC(=O)N1CCOCC1)N1CCOCC1 | inactive: 0.991
2 | C[C@@H]1CN([C@H](C)CO)S(=O)(=O)c2ccc(C#CC3CC3)cc2O[C@H]1CN(C)Cc1cccc(F)c1 | inactive: 1.03
3 | Cc1cc(O)cc(=O)o1 | inactive: 1.12
4 | C[C@@H]1CN([C@@H](C)CO)C(=O)c2cccc(NC(=O)c3ccncc3)c2O[C@H]1CN(C)S(=O)(=O)c1ccc(F)cc1 | inactive: 0.966
5 | C[C@H]1CN([C@@H](C)CO)C(=O)c2cc(C#CCN(C)C)cnc2O[C@@H]1CN(C)Cc1ccc(C(=O)O)cc1 | inactive: 0.998
6 | Cc1ccc(N2C(=O)c3ccccc3[C@](C)(C(=O)NCCN3CCOCC3)[C@@H]2c2ccc(CO)cc2)nc1 | inactive: 1.01
7 | O=C(CCCCC(=O)N/N=C/[C@H](O)[C@@H](O)[C@@H](O)[C@H](O)CO)NO | inactive: 0.979
8 | C[C@H](CO)N1C[C@H](C)[C@H](CN(C)CC2CCCCC2)Oc2ccc(NC(=O)Cn3cnnn3)cc2C1=O | inactive: 0.999
9 | COc1ccc(NC(=O)Nc2ccc3c(c2)C(=O)N([C@H](C)CO)C[C@H](C)[C@H](CN(C)C(=O)Cc2ccccc2)OCCCC[C@H](C)O3)cc1 | inactive: 1.01
10 | Cc1noc(C)c1S(=O)(=O)Nc1ccc2c(c1)CC(=O)N([C@H](C)CO)C[C@@H](C)[C@H](CN(C)Cc1ccccc1)O2 | inactive: 0.984
11 | C[C@H](CO)N1C[C@H](C)[C@H](CN(C)C(=O)Nc2cccc3ccccc23)Oc2ccc(NC(=O)Nc3ccc(C(F)(F)F)cc3)cc2CC1=O | inactive: 0.97
12 | C[C@H]1CN([C@@H](C)CO)S(=O)(=O)c2ccc(-c3ccc(C(=O)N(C)C)cc3)cc2O[C@H]1CN(C)C(=O)C1CC1 | inactive: 1
13 | Cc1ccc(-n2nnc(C(N)=O)c2C)cc1 | inactive: 0.949
14 | C[C@@H]1CCCCO[C@H](CN(C)Cc2ccc(C(F)(F)F)cc2)[C@@H](C)CN([C@@H](C)CO)C(=O)c2cc(NC(=O)Nc3cccc4ccccc34)ccc2O1 | inactive: 0.916
15 | C[C@H]1CCCCO[C@H](CN(C)C(=O)NC2CCCCC2)[C@@H](C)CN([C@@H](C)CO)C(=O)c2cc(NS(=O)(=O)c3ccc(F)cc3)ccc2O1 | inactive: 1.01
16 | C[C@@H]1CN([C@H](C)CO)C(=O)c2cccc(NS(=O)(=O)c3cn(C)cn3)c2O[C@H]1CN(C)CC1CC1 | inactive: 1.01
17 | C[C@H](CO)N1C[C@H](C)[C@@H](CN(C)C(=O)CN(C)C)Oc2ncc(C#CC(C)(C)O)cc2C1=O | inactive: 1.04
18 | C[C@H](CO)N1C[C@H](C)[C@@H](CN(C)S(=O)(=O)c2ccc(Cl)cc2)OCc2ccccc2-c2c(n(C)c3ccccc23)C1=O | inactive: 1
19 | CO[C@@H]1CN(C)C(=O)c2ccc(NC(=O)c3ccc(F)cc3)cc2OC[C@H](C)N(C(=O)CN(C)C)C[C@@H]1C | inactive: 1
20 | CC1(C)OC(=O)C2(C(=O)O1)[C@@H](c1ccc(-c3ccc(C(F)(F)F)cc3)cc1)CC(=O)C[C@H]2c1ccccc1 | inactive: 1.01

Row | SMILES | relative growth
21 | Cc1noc(C)c1S(=O)(=O)Nc1ccc2c(c1)C(=O)N([C@H](C)CO)C[C@@H](C)[C@@H](CN(C)Cc1ccc3c(c1)OCO3)O2 | inactive: 0.999
22 | C[C@@H]1CN([C@@H](C)CO)C(=O)c2cc(NS(=O)(=O)c3ccc(F)cc3)ccc2O[C@@H](C)CCCCO[C@@H]1CN(C)S(=O)(=O)c1ccc(Cl)cc1 | inactive: 1.03
23 | COc1ccc([C@@H]2CC=CC[C@H](C)Oc3ccccc3C(=O)N(C)[C@@H](Cc3ccccc3)C(=O)N2)c(OC)c1 | inactive: 1.01
24 | O=C(O)CCSc1n[nH]c(=O)[nH]c1=O | inactive: 0.955
25 | Cc1ccc(S(=O)(=O)N(C)C[C@H]2OCCCC[C@H](C)Oc3ccc(NS(=O)(=O)c4ccc(F)cc4)cc3C(=O)N([C@@H](C)CO)C[C@H]2C)cc1 | inactive: 0.955
26 | CSC1=NCCN1 | inactive: 1.01
27 | C#CC1(OC(C)=O)CCC2C3CCC4=CC(OC(C)=O)CCC4C3CCC21C (stereo not given) | inactive: 0.962
28 | CN1C(=O)c2cc(NC(=O)Cc3cccs3)ccc2OC[C@H]2O[C@H](CC(=O)NCCCN3CCOCC3)CC[C@@H]21 | inactive: 0.998
29 | Cc1csc2ccc(F)cc12 | inactive: 1.02
30 | COc1ccc([Si](C)(C)[C@H]2[C@H](CC(=O)N3CCC[C@H]3CO)O[C@@]3(C(=O)N(Cc4cccc(N5CCCCC5=O)c4)c4ccccc43)[C@@H]2C)cc1 | inactive: 1.02
31 | COc1ccc2[nH]c(S(=O)Cc3ncc(C)c(OC)c3C)nc2n1 (stereo not given) | inactive: 1.11
32 | COc1ccc(S(=O)(=O)N2C[C@H](O)COC[C@H]3O[C@@H](CC(=O)NCCN4CCCCC4)CC[C@@H]32)cc1 | inactive: 0.963
33 | O=C(CN1CCOCC1)N[C@H]1CC[C@@H](CCNC(=O)Nc2cc(F)ccc2F)O[C@H]1CO | inactive: 0.975
34 | C[C@@H]1CN([C@H](C)CO)C(=O)c2cc(NC(=O)c3ccncc3)ccc2O[C@@H](C)CCCCO[C@H]1CN(C)Cc1ccc(C(F)(F)F)cc1 | inactive: 1
35 | C[C@H]1CCCCO[C@H](CN(C)S(=O)(=O)c2ccc(Cl)cc2)[C@@H](C)CN([C@@H](C)CO)C(=O)c2cc(NS(=O)(=O)c3ccc(Cl)cc3)ccc2O1 | inactive: 1.02
36 | CCS(=O)(=O)Nc1ccc2c(c1)C(=O)N(C)[C@@H]1CC[C@H](CC(=O)N[C@H]3CCN(Cc4ccccc4)C3)O[C@@H]1CO2 | inactive: 1.01
37 | C[C@@H]1CN([C@@H](C)CO)C(=O)c2cc(NC(=O)Nc3ccc(C(F)(F)F)cc3)ccc2O[C@@H](C)CCCCO[C@H]1CN(C)C(=O)Nc1ccccc1 | inactive: 0.985
38 | CNC[C@@H]1OCCCC[C@@H](C)Oc2ccc(NC(=O)Nc3ccc(C(F)(F)F)cc3)cc2C(=O)N([C@H](C)CO)C[C@H]1C | inactive: 0.95
39 | CC(C)CN1C(=O)[C@@]2(c3ccc([N+](=O)[O-])cc3)CC(=O)N(CC34CC5CC(CC(C5)C3)C4)[C@@H]2c2ccc(CO)cc21 | inactive: 1.01
40 | O=C(C[C@@H]1CC[C@@H]2[C@H](COC[C@@H](O)CN2S(=O)(=O)c2ccc(Cl)cc2)O1)NCCN1CCCC1 | inactive: 1
